SMILES strings stand for the structures. In all, about 110,000 compounds were measured (“z-score”: median about -0.1, highest 2% from about 2 on). This is one part of the list. Active and inactive are the calls of the source.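 Rule for the calls: active = z-score in the third read window above 3 or below -3; inactive = the rest.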

The test concerns the target Metabotropic glutamate receptor 8 (Rattus norvegicus) (UniProt P70579). The test can be described thus: mGluR8 Gi/Go-coupled signaling modulation – cell-based, rat, thallium flux, HTS, primary screen (AID 488969). The settings on record: HEK293 rat mGluR8, GIRK (G protein-gated inwardly rectifying potassium channel) thallium flux, FluoZin2; at 10 µM; stronger effect = higher value; submaximal glutamate (EC20) added with thallium.
UniProt P70579, sequence (P70579 whole entry, looked up): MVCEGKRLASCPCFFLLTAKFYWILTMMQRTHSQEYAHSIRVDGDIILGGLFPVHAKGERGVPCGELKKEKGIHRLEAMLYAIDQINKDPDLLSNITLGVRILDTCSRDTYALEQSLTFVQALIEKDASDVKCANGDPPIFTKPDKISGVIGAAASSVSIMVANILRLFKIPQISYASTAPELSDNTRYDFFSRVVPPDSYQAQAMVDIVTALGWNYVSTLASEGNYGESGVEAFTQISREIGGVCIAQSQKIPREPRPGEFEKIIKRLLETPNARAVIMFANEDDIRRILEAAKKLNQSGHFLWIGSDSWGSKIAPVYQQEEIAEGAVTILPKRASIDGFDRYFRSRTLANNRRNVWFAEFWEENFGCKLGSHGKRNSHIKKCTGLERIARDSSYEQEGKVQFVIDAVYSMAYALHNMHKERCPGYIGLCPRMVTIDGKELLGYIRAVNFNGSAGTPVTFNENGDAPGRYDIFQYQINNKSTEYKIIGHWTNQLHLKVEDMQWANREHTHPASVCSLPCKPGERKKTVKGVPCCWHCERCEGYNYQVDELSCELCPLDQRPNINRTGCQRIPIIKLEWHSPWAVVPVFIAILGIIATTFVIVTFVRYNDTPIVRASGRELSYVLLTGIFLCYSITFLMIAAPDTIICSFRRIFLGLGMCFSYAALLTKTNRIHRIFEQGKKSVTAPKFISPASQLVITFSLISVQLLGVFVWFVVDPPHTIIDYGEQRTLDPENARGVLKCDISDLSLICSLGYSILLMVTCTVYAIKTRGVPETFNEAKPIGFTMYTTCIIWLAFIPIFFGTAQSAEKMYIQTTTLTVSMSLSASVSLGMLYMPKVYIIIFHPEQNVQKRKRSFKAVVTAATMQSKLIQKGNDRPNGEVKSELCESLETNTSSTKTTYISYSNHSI
Turning to `CN(c1ccccc1)S(=O)(=O)c1ccc(NC(=O)c2ccccc2)cc1`, the z-score was -0.359.

In turn, `Cc1ccc(-n2c(SCC(=O)N3CC(=O)Nc4ccccc43)nc3ccccc3c2=O)cc1` showed a z-score of -0.279.

For `CCCC1S/C(=N/N=C/c2cccs2)NC1=O` (stereo not drawn), the z-score was -0.9.

For `CN(C(=O)c1cc2sccc2n1C)C1CCCCC1`, the z-score is -0.766.

As to `CC(=O)c1c(C)[nH]c(C(=O)OCC(=O)Nc2cc(Cl)ccc2[N+](=O)[O-])c1C`, the z-score was -0.444.

With `CCC(CC)C(=O)NCCc1ccc(OC)c(OC)c1`, the z-score came out at 0.262.

Compound `O=C(CN1CCN(Cc2ccccc2)C1=O)NCc1cccs1` registered a z-score of -0.136.

For the compound `CCOC(=O)c1cccnc1SCC(=O)NCc1ccccc1`, the z-score was -0.142.

`Cc1csc(=N)n1CC(=O)N1CCc2ccccc21`: the z-score is 0.237.

Compound `O=C(CCN1CCCCC1)N/N=C/c1ccc(Br)cc1` showed a z-score of -1.67.

For `CCc1nnc(NC(=O)c2cccc(S(=O)(=O)N(C)c3ccccc3)c2)s1`, the z-score was -1.

Regarding `CC(C)OC(=O)c1nn2c(C(F)(F)F)cc(-c3ccc(Br)o3)nc2c1Br`, the z-score is 0.469.

`O=C(O)CCC(=O)N1CCN(c2nc3ccccc3s2)CC1` had a z-score of 0.225.

Turning to `NC(=O)C1CCN(C(=O)CSc2nc3ccccc3o2)CC1`, the z-score was -0.000236.

As for `Cc1cccc(-c2nnn(Cc3nnc(NC(=O)c4ccccc4)s3)n2)c1`, the z-score was -0.0603.

`CCCS(=O)(=O)N1CCCC(C(=O)N2CCOCC2)C1` (stereo not drawn) registered a z-score of -0.0605.

Take `CCOC(=O)c1c(C)[nH]c(C)c1C(=O)COC(=O)c1cc2ccccc2cc1O`: the z-score is -0.189.

`CCS(=O)(=O)N1CCC(C(=O)Nc2cccc(C(C)=O)c2)CC1` registered a z-score of 0.465.

The compound `O=C(O)[C@@H]1CCCN1c1ncnc2sc3c(c12)CCC3` had a z-score of -1.31.

On to `O=C(O)/C=C\C(=O)Nc1ccccc1C(=O)NCc1ccccc1`, for which the z-score turned out to be 0.0517.

For the compound `CC(C)Oc1ccc(CCc2n[nH]c(=S)n2Cc2ccccc2)cc1`, the z-score came to 0.446.

On to `CCOc1ccc(N2C(=O)/C(=C/c3ccc(C)o3)N(C)C2=S)cc1`, for which the z-score came to 0.188.

As to `COc1cccc(N=Nc2c(=O)[nH]n3c(=O)cc(C)[nH]c23)c1`, the z-score was -0.34.

In turn, `COC(=O)c1ccccc1NC(=O)CN(c1ccccc1)S(=O)(=O)N(C)C` registered a z-score of -1.07.

`CS(=O)(=O)N1N=C(c2ccc(Cl)cc2)CC1c1cccs1` (stereo not drawn) came in with a z-score of -0.359.

Compound `CCCCOc1ccc(C(=O)OC(C)CN(C)C)cc1` (stereo not drawn) gave a z-score of 0.416.

`Cc1cc(Oc2ccccc2F)nc(NCc2ccccc2)n1` showed a z-score of -0.085.

With `CCC(=O)Oc1c(C(=O)CC)cc2c(C)cc(=O)oc2c1C`, the z-score is -0.0867.

In turn, `CN(C)C(=S)Nc1ccc([N+](=O)[O-])cc1` had a z-score of -0.23.

As for `COc1ccc(NC(=O)CCN2CCN(S(=O)(=O)c3ccc(C(C)C)cc3)CC2)cc1`, the z-score is -0.149.

`CCOc1ccccc1NC(=O)C1CCCN(S(=O)(=O)c2ccc(OC)c(C)c2)C1` (stereo not drawn) came in with a z-score of -0.663.

`CC(Oc1ccc(-c2ccccc2)c(F)c1)c1ccn(S(=O)(=O)c2ccc(Br)cc2)n1` (stereo not drawn) returned a z-score of -0.236.

For the compound `CCC(CO)Nc1nc(CN2CCCCC2)nc2scc(-c3ccccc3)c12` (stereo not drawn), the z-score was -0.267.

Turning to `COC(=O)c1sccc1NC(=O)CSc1ccccc1NS(=O)(=O)c1ccccc1Cl`, the z-score is active: 3.17.

The compound `CNC(=S)N(CCc1cccc(C)c1)Cc1cc2cc(OC)c(OC)cc2[nH]c1=O` showed a z-score of -0.114.

As for `O=C(CN1CCN(c2ccccn2)CC1)N1c2ccccc2CCc2ccccc21`, the z-score came to 0.015.

Compound `CCC1(C)Cc2c(sc3nc(SC)nc(N)c23)CO1` (stereo not drawn) had a z-score of 0.264.

As for `Cc1ccc(-c2noc(C3CCN(S(C)(=O)=O)CC3)n2)o1`, the z-score is -0.118.

For `O=c1c2cnn(-c3ccccc3)c2nc(-c2cccs2)n1-c1ccc(Cl)cc1`, the z-score was -0.161.

`O=C(CCc1ccccc1)NCCSCc1c(F)cccc1Cl` returned a z-score of -0.181.

`Nc1nc(-c2ccco2)c(-c2ccco2)s1` came in with a z-score of 1.04.

For `CCOC(=O)c1c(NC(NC(C)=O)C(Cl)(Cl)Cl)sc(C(C)=O)c1C` (stereo not drawn), the z-score was -0.687.

With `COc1ccc(-c2cc(C(=O)Nc3cccc(C(C)=O)c3)no2)cc1`, the z-score is -0.222.

`Cc1ccc(S(=O)(=O)NN=C2CCC(C(C)(C)C)CC2)cc1[N+](=O)[O-]` (stereo not drawn) came in with a z-score of -0.696.

Turning to `Cc1cc(C)c(NC(=O)C2c3ccccc3Oc3ccccc32)c(C)c1`, the z-score came out at 0.361.

In the case of `CC(C)(C)N=Cc1cc(-c2ccccc2)sc1O`, the z-score was -0.023.

`COCCCNC(=O)Cn1cc(C(=O)C2CC2)c2ccccc21`: the z-score is -0.146.

Consider `O=C(C1CCCN(S(=O)(=O)c2cnc[nH]2)C1)N1CCN(c2ccc(Cl)cc2)CC1` (stereo not drawn), for which the z-score was -0.154.

Consider `O=C(Nc1cccc2c1CCCC2)C1CCCN(S(=O)(=O)c2cccc3nonc23)C1` (stereo not drawn), for which the z-score was found to be 0.0516.

Compound `COc1ccc(Nc2ccc(S(=O)(=O)N3CCCCC3)cc2[N+](=O)[O-])cc1Cl` returned a z-score of 0.547.

Take `Cc1ccc(/C=C2/SC(=S)N(CC(=O)Nc3ncc(Cc4ccc(C)cc4)s3)C2=O)cc1`: the z-score was -0.0148.

For `CCC(=O)Nc1ccc(C(=O)OCC(=O)c2ccc(C)c([N+](=O)[O-])c2)cc1`, the z-score stood at 0.0768.

For the compound `Nc1ccc(Cc2ccc(N)c(C(=O)O)c2)cc1C(=O)O`, the z-score is -0.243.

`O=S(=O)(c1ccccc1)N1CCN(S(=O)(=O)c2ccccc2)C1` returned a z-score of -0.0762.

Compound `COc1ccc(-c2nnc(SCCc3ccccc3)n2N)cc1` came in with a z-score of 0.0423.

The compound `Cc1cc(Nc2ncc(Cl)cc2Cl)n[nH]1` showed a z-score of 0.428.

Regarding `O=C(COC(=O)CNC(=O)C12CC3CC(CC(C3)C1)C2)NC1CCS(=O)(=O)C1` (stereo not drawn), the z-score came out at 0.0567.

`O=C(Cn1cc2c(n1)CCCCC2)Nc1c(F)c(F)cc(F)c1F`: the z-score is 0.762.

In turn, `ClC(Cl)(c1nnnn1-c1ccccc1)c1nnnn1-c1ccccc1` showed a z-score of -0.205.

The compound `CCOc1ccc(-c2cc(CCCC(=O)N3CCN(c4ccc(OC)cc4)CC3)no2)cc1` showed a z-score of 0.578.

`Cc1ccc(NC(=O)CN(C)S(=O)(=O)c2cccc3nsnc23)cc1C` yielded a z-score of -0.325.

Regarding `COc1ccc(NC(=O)c2ccc(COc3ccccc3OC)o2)cc1OC`, the z-score is -0.19.

On to `Fc1ccccc1-c1nc(-c2ccccc2)no1`, for which the z-score was -0.104.

`CCOc1cc(NC(=S)NCc2ccco2)c(OCC)cc1NC(=O)C1CC1` returned a z-score of 0.717.

In the case of `COC(=O)c1ccccc1OCC(=O)NC1CCCCC1`, the z-score was -0.229.

In turn, `CCCNC(=O)CCc1c(C)nc2nc(-c3cc(OC)cc(OC)c3)nn2c1C` came in with a z-score of 0.6.

`COc1cccc(OCC(=O)N(Cc2nc(-c3ccc(Cl)cc3)no2)C(C)C)c1` registered a z-score of 0.0492.

Compound `O=S(=O)(c1cccc2nsnc12)N1CCc2ccccc2C1` returned a z-score of -0.543.

Turning to `N#CC1=C(N)N(c2ccccc2)C(=O)C1`, the z-score is -0.0445.

Consider `Cc1nc(-c2coc3cc(O)c(C)cc3c2=O)cs1`, for which the z-score is -0.557.

`CCOc1ccc(N=C2NC(=O)S/C2=C\c2ccc(OC)cc2)cc1` showed a z-score of -0.262.

`CS(=O)(=O)NC1CCN(Cc2ccccc2)CC1` returned a z-score of -0.106.

The compound `CC1=C(Sc2ccccn2)C(=O)NC(C)(C)C1` came in with a z-score of 0.338.

`COc1ccc(NC(=O)c2ccc(COCC(F)(F)F)cc2)cc1OC`: the z-score was -0.575.

`CCc1ccc(C(C(=O)NC2CCCC2)N(C(=O)/C=C/C(=O)Nc2cc(C)on2)c2ccccc2C)cc1` (stereo not drawn) displayed a z-score of -1.04.

Regarding `COc1c(C)cc(Br)cc1C(=O)O`, the z-score is -0.248.

`CCOC(=O)/C(=N\Nc1ccccc1)S(=O)(=O)c1ccccc1` had a z-score of -0.623.

Regarding `O=C(NCCCn1ccnc1)c1cc(-c2cccs2)on1`, the z-score is -0.401.

Compound `COc1ccc(CCNC(=O)CSc2nc3c(c(=O)n(C)c(=O)n3C)n2C(C)C)cc1OC` yielded a z-score of -0.0176.

Regarding `CCOC(=O)Cn1c2c(c(=N)c3c1CCC3)CCC2`, the z-score is 0.248.

Compound `O=C(Cc1ccc(S(=O)(=O)N2CCCC2)s1)NC1CCCCCC1` yielded a z-score of -0.143.

`COc1ccc(Nc2ncnc3sc(-c4ccccc4)cc23)cc1OC` displayed a z-score of -0.275.

Regarding `COc1ccccc1OCc1ccc(C(=O)NCc2cccnc2)o1`, the z-score is 0.168.

Compound `CCOC(=O)N/N=C(\C)c1ccc(OC(F)F)cc1OC(F)F` returned a z-score of -0.0776.

With `COc1ccccc1-c1c(-c2ccc(OCC(=O)NN)cc2O)n[nH]c1C(F)(F)F`, the z-score is -0.126.

With `COc1ccccc1NS(=O)(=O)c1cccc(C(=O)OCC(=O)Nc2cc(C)on2)c1`, the z-score was -0.0829.

Compound `CN(C)c1nc(NCc2ccccc2)nc(SCC(=O)Nc2ccccc2)n1` gave a z-score of -0.0683.

In the case of `N#C/C(=C(/O)COC(=O)CCC1CCCCC1)c1nc2ccccc2[nH]1`, the z-score came out at 0.153.

Take `Cc1cc([N+](=O)[O-])nn1CC(=O)N1N=C(C(F)F)CC1(O)C(F)F` (stereo not drawn): the z-score is -0.152.

On to `Cc1cc(=O)[nH]c(SCC(=O)NCc2ccco2)n1`, for which the z-score is -0.0757.

Turning to `Cc1nn(-c2ccccc2)c2nc3c(cc12)C(=O)CCC3`, the z-score stood at 0.172.

`Cc1cc(NC(=O)Cn2nc(C(F)(F)F)c3c2CCCC3)no1` displayed a z-score of 0.876.

As for `CC1CN(C(=O)c2ccccc2Sc2ccccc2C#N)CC(C)O1` (stereo not drawn), the z-score was 0.335.

With `COc1ccccc1CC(=O)N1CCN(c2cccc(C(F)(F)F)c2)CC1`, the z-score is 0.359.

`O=S(=O)(NC1=NCCC1)c1cccs1` yielded a z-score of -0.13.

Turning to `COC(=O)N1CCN(c2ccc(Cl)c(Cl)c2)CC1`, the z-score turned out to be 0.194.

`N#Cc1ccc(CSc2nnc(-c3ccccc3)n2Cc2ccco2)cc1` displayed a z-score of -0.289.

In the case of `CC(C)(C)C(=O)Nc1cccc(-c2nc3ccccc3[nH]2)c1`, the z-score was -0.137.

On to `CCOC(=O)C(C)n1cnc2c(nnn2Cc2ccc(C)cc2)c1=O` (stereo not drawn), for which the z-score stood at 0.981.

On to `COc1ccc(-c2nsc3c(N4CCCCC4)ncnc23)cc1`, for which the z-score worked out at 0.0276.

On to `CN(C)S(=O)(=O)c1cccc(NC(=S)Nc2ccc(Cl)cc2Cl)c1`, for which the z-score is active: 7.58.

In turn, `CCC1(C)Cc2ccccc2-c2c1c(=O)n(Cc1ccccc1)c1nnnn21` (stereo not drawn) gave a z-score of 0.314.

Regarding `CCc1nnc(NC(=O)CSc2nccn2-c2cc(C)cc(C)c2)s1`, the z-score was -0.56.

For the compound `COc1ccccc1C(CC(=O)Nc1nccs1)c1ccco1` (stereo not drawn), the z-score is -0.974.

Compound `O=S(=O)(c1ccc(Cl)cc1)n1ccc2cccnc21` showed a z-score of -0.313.

Compound `Cc1cc(C)n(CCc2nc(-c3cc4ccccc4o3)cs2)n1` registered a z-score of -0.767.

As for `O=C1c2ccccc2-c2ncnc3cccc1c23`, the z-score turned out to be 0.183.

Compound `CCOC(=O)c1c(C)nc2c(C#N)cnn2c1C` gave a z-score of 0.00137.

As for `O=C(NCc1ccco1)c1ccc(Cn2cc([N+](=O)[O-])cn2)o1`, the z-score amounted to 0.638.

With `CN(C)c1ccc(NS(=O)(=O)c2cccc(Cl)c2)cc1`, the z-score is -0.342.

As to `Cc1ccccc1OCC(=O)N1N=C(C(F)(F)F)CC1(O)C(C)(C)C` (stereo not drawn), the z-score is 1.61.

`O=C(NNC(=S)Nc1ccccc1)C1CC1` had a z-score of -0.336.

Turning to `N#C/C(=C\c1cccnc1)C(=O)Nc1cccc2ccccc12`, the z-score was -0.463.

Source of the values: PubChem BioAssay AID488969 (Vanderbilt High Throughput Screening Facility, 2010).
